Experimental data published in the supplement of paper PMC4166925.
± gives the standard deviation of the averaged measurements. The full ranking holds about 33,000 sequences; the median of “E-score (dimensionless, -0.5 to 0.5)” is about -0.049, and the highest 2% start at about 0.37. The list shows a part of the results.

tested on: T1, PmTbr T-box DNA-binding domain (GST fusion); assay: PBM E-score of 8-mer (E-score (dimensionless, -0.5 to 0.5)); Tbr is Tbrain of the sea star Patiria miniata (Pm) or the sea urchin Strongylocentrotus purpuratus (Sp); higher = stronger binding preference; most listed sequences are background and not binding sites; settings: the construct has about 5 more residues each side
T1 sequence: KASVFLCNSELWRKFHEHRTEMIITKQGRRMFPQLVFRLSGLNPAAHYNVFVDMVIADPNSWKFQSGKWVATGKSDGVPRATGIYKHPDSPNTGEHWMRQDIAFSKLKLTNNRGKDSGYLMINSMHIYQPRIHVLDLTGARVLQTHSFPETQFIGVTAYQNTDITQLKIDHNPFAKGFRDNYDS
How it was run: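 GST-fused Tbr T-box DNA-binding domains (the whole T-box plus about five flanking residues) were expressed in BL21 E. coli at 20 °C and purified by glutathione affinity chromatography. Universal Agilent oligonucleotide arrays were made double-stranded by primer extension, incubated with 200 nM protein in PBS (pH 7.5), then scanned and quantified. Every ungapped 8-mer was scored from probe intensities. The Universal PBM Analysis Suite gave each word an enrichment E-score, averaged over duplicate arrays.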

Sequence | PBM E-score of 8-mer
CCCTGGAC | -0.263 ± 0.0057
CATGAACA | -0.0713 ± 0.041
AATTCTCC | -0.118 ± 0.02
ACCACTAA | 0.0837 ± 0.0058
AAGGTGGT | 0.3415 ± 0.002
ACGACAAT | 0.0237 ± 0.016
ATTAGAGA | -0.234 ± 0.007
CGAACAAG | -0.177 ± 0.019
CCAGTCAG | -0.104 ± 0.074
GCATGATA | -0.22 ± 0.021
AGTGTGTC | 0.248 ± 0.0093
ACACCCGT | 0.352 ± 0.0052
GTCCGAAA | -0.0702 ± 0.01
GGGCTATA | -0.166 ± 0.015
CGCAAGGA | 0.0552 ± 0.019
CGCGGAGC | -0.021 ± 0.077
CATAGTGC | 0.0881 ± 0.024
GGTTTGAA | -0.124 ± 0.029
AAGTTAGC | 0.192 ± 0.011
ATATTCCG | -0.0495 ± 0.02
TGTGCACA | 0.0718 ± 0.017
GCAGACGA | 0.000765 ± 0.022

Sequence | PBM E-score of 8-mer
CCGTTAGA | 0.0408 ± 0.021
CAACGTAG | -0.201 ± 0.0054
ATACGACG | 0.0115 ± 0.015
CGCTCTTA | -0.285 ± 0.014
CTGACCCA | -0.218 ± 0.038
GCGGCACC | 0.319 ± 0.025
GCTGCGAC | 0.137 ± 0.0089
GCAAGTTA | -0.0125 ± 0.0034
CCCGTTGC | -0.144 ± 0.0081
ACAAACGG | -0.0712 ± 0.015
AGAGCTCC | -0.301 ± 0.036
GTAGGCTA | -0.101 ± 0.08
ATACAACA | 0.0543 ± 0.036
ACTCACTA | 0.144 ± 0.02
ATCGGCAG | -0.144 ± 0.013
CTTTAGCC | -0.123 ± 0.012
GGCCCCTA | -0.211 ± 0.011
CTGTGAAC | 0.356 ± 0.0043
CGTTCGTC | -0.065 ± 0.017
ATAGTGGA | -0.00882 ± 0.0057
CATCGTGA | 0.0195 ± 0.014
ATCAATAC | -0.0107 ± 0.0085

Sequence | PBM E-score of 8-mer
GAGATGCC | -0.112 ± 0.029
GACAACGA | 0.0183 ± 0.0056
CCCTTATC | -0.014 ± 0.043
TAGGTCGA | -0.111 ± 0.085
ATGAAAAA | -0.115 ± 0.075
AAGGACGC | -0.323 ± 0.036
AGTTTCAG | -0.101 ± 0.063
ACCGGTCT | -0.234 ± 0.014
ACGGCTAC | -0.0169 ± 0.0055
CAGTTAAG | -0.0266 ± 0.09
CCGGACCC | 0.0429 ± 0.0073
AAGAGTAG | -0.1 ± 0.014
ACATTCGC | 0.267 ± 0.042
AAGCGCGT | 0.133 ± 0.017
CGTGAAGC | 0.231 ± 0.0064
TGAGGAAA | 0.0379 ± 0.024
ACCAACGT | -0.094 ± 0.013
AAGTGGGT | 0.0533 ± 0.0069
AGCCTAAA | -0.0212 ± 0.042
ATCAGGTA | -0.0936 ± 0.033
CCCTGTCG | -0.0758 ± 0.019
AAGTGGAC | -0.106 ± 0.015

Sequence | PBM E-score of 8-mer
ATAGTGAG | 0.254 ± 0.015
CACATGCA | 0.178 ± 0.027
AAGGGGAC | -0.147 ± 0.0055
ACATGCGC | 0.117 ± 0.092
AATAAATT | -0.105 ± 0.0048
TGCTATAA | -0.032 ± 0.099
CACCATGG | 0.149 ± 0.062
GTAATCTA | -0.186 ± 0.018
ACGCGCTC | 0.103 ± 0.02
ATCTACAA | -0.227 ± 0.062
TGAAGTAA | -0.238 ± 0.016
AAAAGATC | -0.145 ± 0.072
ATCAGGAG | -0.187 ± 0.033
AGCGCCAC | 0.28 ± 0.042
ACTTAACC | -0.155 ± 0.013
GAGCTCCC | -0.132 ± 0.065
CGGCGACC | -0.12 ± 0.053
AGCTTCAC | 0.145 ± 0.072
CTTATTCC | -0.215 ± 0.019
TACCTGGA | 0.0222 ± 0.044
